# The other results are listed elsewhere or left out.
# How the values were obtained:
# Experiment in all cases: glycan array binding signal (z-score within array); higher = stronger binding
# Conditions in all cases: glycan notation: IUPAC condensed, linker removed
# [1] = target: Gal(b1-4)GlcNAc(b1-2)Man(a1-6)[Man(a1-3)]Man(b1-4)GlcNAc(b1-4)GlcNAc
# Method in brief: (§1)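 From the Consortium for Functional Glycomics database, 3228 arrays were curated, keeping only those whose protein sequence was available. Binding is given as a within-array Z-score averaged across arrays sharing a protein sequence and across linkers. Negative Z-scores can be read as non-binding.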
# [2] = target: Gal(b1-4)GlcNAc(b1-2)[Gal(b1-4)GlcNAc(b1-4)]Man(a1-3)[Gal(b1-4)GlcNAc(b1-2)Man(a1-6)]Man(b1-4)GlcNAc(b1-4)GlcNAc
# Method in brief: as §1
# [3] = target: Gal(b1-4)GlcNAc(b1-2)[Gal(b1-4)GlcNAc(b1-4)]Man(a1-3)[Gal(b1-4)GlcNAc(b1-2)[Gal(b1-4)GlcNAc(b1-6)]Man(a1-6)]Man(b1-4)GlcNAc(b1-4)GlcNAc
# Method in brief: as §1
# [4] = target: Gal(b1-4)GlcNAc(b1-2)[Gal(b1-4)GlcNAc(b1-4)]Man(a1-3)[GlcNAc(b1-4)][Gal(b1-4)GlcNAc(b1-2)Man(a1-6)]Man(b1-4)GlcNAc(b1-4)GlcNAc
# Method in brief: as §1
# [5] = target: Gal(b1-4)GlcNAc(b1-2)[Gal(b1-4)GlcNAc(b1-4)]Man(a1-3)[GlcNAc(b1-4)][Gal(b1-4)GlcNAc(b1-2)[Gal(b1-4)GlcNAc(b1-6)]Man(a1-6)]Man(b1-4)GlcNAc(b1-4)GlcNAc
# Method in brief: as §1
# [6] = target: Gal(b1-4)GlcNAc(b1-2)[Gal(b1-4)GlcNAc(b1-6)]Man(a1-6)[Gal(b1-4)GlcNAc(b1-2)Man(a1-3)]Man(b1-4)GlcNAc(b1-4)GlcNAc
# Method in brief: as §1
# [7] = target: Gal(b1-4)GlcNAc(b1-2)[Gal(b1-4)GlcNAc(b1-6)]Man(a1-6)[Gal(b1-4)GlcNAc(b1-2)Man(a1-3)]Man(b1-4)GlcNAc(b1-4)[Fuc(a1-6)]GlcNAc
# Method in brief: as §1
# [8] = target: Gal(b1-4)GlcNAc(b1-2)[Gal(b1-4)GlcNAc(b1-6)]Man(a1-6)[GlcNAc(b1-4)][Gal(b1-4)GlcNAc(b1-2)Man(a1-3)]Man(b1-4)GlcNAc(b1-4)GlcNAc
# Method in brief: as §1
# [9] = target: Gal(b1-4)GlcNAc(b1-2)[Gal(b1-4)GlcNAc(b1-6)]Man(a1-6)[GlcNAc(b1-4)][Gal(b1-4)GlcNAc(b1-2)[Gal(b1-4)GlcNAc(b1-4)]Man(a1-3)]Man(b1-4)GlcNAc(b1-4)[Fuc(a1-6)]GlcNAc
# Method in brief: as §1
# [10] = target: Gal(b1-4)GlcNAc(b1-3)Gal(b1-3)GalNAc
# Method in brief: as §1
# [11] = target: Gal(b1-4)GlcNAc(b1-3)Gal(b1-3)GlcNAc
# Method in brief: as §1
# [12] = target: Gal(b1-4)GlcNAc(b1-3)Gal(b1-4)Glc
# Method in brief: as §1
# [13] = target: Gal(b1-4)GlcNAc(b1-3)Gal(b1-4)GlcNAc
# Method in brief: as §1
# [14] = target: Gal(b1-4)GlcNAc(b1-3)Gal(b1-4)GlcNAc(b1-2)Man(a1-3)[Gal(b1-4)GlcNAc(b1-3)Gal(b1-4)GlcNAc(b1-2)Man(a1-6)]Man(b1-4)GlcNAc(b1-4)GlcNAc
# Method in brief: as §1
# [15] = target: Gal(b1-4)GlcNAc(b1-3)Gal(b1-4)GlcNAc(b1-2)Man(a1-3)[Gal(b1-4)GlcNAc(b1-3)Gal(b1-4)GlcNAc(b1-2)Man(a1-6)]Man(b1-4)GlcNAc(b1-4)[Fuc(a1-6)]GlcNAc
# Method in brief: as §1
# [16] = target: Gal(b1-4)GlcNAc(b1-3)Gal(b1-4)GlcNAc(b1-2)[Gal(b1-4)GlcNAc(b1-3)Gal(b1-4)GlcNAc(b1-6)]Man(a1-6)[Gal(b1-4)GlcNAc(b1-3)Gal(b1-4)GlcNAc(b1-2)Man(a1-3)]Man(b1-4)GlcNAc(b1-4)GlcNAc
# Method in brief: as §1
# [17] = target: Gal(b1-4)GlcNAc(b1-3)Gal(b1-4)GlcNAc(b1-2)[Gal(b1-4)GlcNAc(b1-3)Gal(b1-4)GlcNAc(b1-6)]Man(a1-6)[Gal(b1-4)GlcNAc(b1-3)Gal(b1-4)GlcNAc(b1-2)Man(a1-3)]Man(b1-4)GlcNAc(b1-4)[Fuc(a1-6)]GlcNAc
# Method in brief: as §1
# [18] = target: Gal(b1-4)GlcNAc(b1-3)Gal(b1-4)GlcNAc(b1-3)Gal(b1-4)GlcNAc
# Method in brief: as §1
# [19] = target: Gal(b1-4)GlcNAc(b1-3)Gal(b1-4)GlcNAc(b1-3)Gal(b1-4)GlcNAc(b1-2)Man(a1-3)[Gal(b1-4)GlcNAc(b1-3)Gal(b1-4)GlcNAc(b1-3)Gal(b1-4)GlcNAc(b1-2)Man(a1-6)]Man(b1-4)GlcNAc(b1-4)GlcNAc
# Method in brief: as §1
# [20] = target: Gal(b1-4)GlcNAc(b1-3)Gal(b1-4)GlcNAc(b1-3)Gal(b1-4)GlcNAc(b1-2)Man(a1-3)[Gal(b1-4)GlcNAc(b1-3)Gal(b1-4)GlcNAc(b1-3)Gal(b1-4)GlcNAc(b1-2)Man(a1-6)]Man(b1-4)GlcNAc(b1-4)[Fuc(a1-6)]GlcNAc
# Method in brief: as §1
# [21] = target: Gal(b1-4)GlcNAc(b1-3)Gal(b1-4)GlcNAc(b1-3)Gal(b1-4)GlcNAc(b1-2)[Gal(b1-4)GlcNAc(b1-3)Gal(b1-4)GlcNAc(b1-3)Gal(b1-4)GlcNAc(b1-6)]Man(a1-6)[Gal(b1-4)GlcNAc(b1-3)Gal(b1-4)GlcNAc(b1-3)Gal(b1-4)GlcNAc(b1-2)Man(a1-3)]Man(b1-4)GlcNAc(b1-4)[Fuc(a1-6)]GlcNAc
# Method in brief: as §1
# [22] = target: Gal(b1-4)GlcNAc(b1-3)Gal(b1-4)GlcNAc(b1-3)Gal(b1-4)GlcNAc(b1-3)Gal(b1-4)GlcNAc(b1-2)Man(a1-3)[Gal(b1-4)GlcNAc(b1-3)Gal(b1-4)GlcNAc(b1-3)Gal(b1-4)GlcNAc(b1-3)Gal(b1-4)GlcNAc(b1-2)Man(a1-6)]Man(b1-4)GlcNAc(b1-4)GlcNAc
# Method in brief: as §1
binder,measurement,setting,value
Microvirin-2 (Microcystis aeruginosa) (protein) MPNFSHTCSSINYDPDSTILSAECQARDGEWLPTELRLSDHIGNIDGELQFGDQNFQETCQDCHLEFGDGEQSVWLVCTCQTMDGEWKSTQILLDSQIDNNDSQLEIGGSMPNFSHTCSSINYDPDSTILSAECQARDGEWLPTELRLSDHIGNIDGELQFGDQNFQETCQDCHLEFGDGEQSVWLVCTCQTMDGEWKSTQILLDSQIDNNDSQLEIG,glycan array binding signal (z-score),[1],-0.141
same,glycan array binding signal (z-score),[2],-0.131
same,glycan array binding signal (z-score),[3],-0.135
same,glycan array binding signal (z-score),[4],-0.133
same,glycan array binding signal (z-score),[5],-0.138
same,glycan array binding signal (z-score),[6],-0.137
same,glycan array binding signal (z-score),[7],-0.131
same,glycan array binding signal (z-score),[8],-0.14
same,glycan array binding signal (z-score),[9],-0.132
same,glycan array binding signal (z-score),[10],-0.14
same,glycan array binding signal (z-score),[11],-0.146
same,glycan array binding signal (z-score),[12],-0.138
same,glycan array binding signal (z-score),[13],-0.141
same,glycan array binding signal (z-score),[14],-0.011
same,glycan array binding signal (z-score),[15],0.022
same,glycan array binding signal (z-score),[16],-0.042
same,glycan array binding signal (z-score),[17],-0.104
same,glycan array binding signal (z-score),[18],-0.146
same,glycan array binding signal (z-score),[19],-0.035
same,glycan array binding signal (z-score),[20],-0.085
same,glycan array binding signal (z-score),[21],-0.121
same,glycan array binding signal (z-score),[22],-0.115
